The numbers were not newly measured in patent US6812380B2, “Compositions and methods of zearalenone detoxification” (Pioneer Hi-Bred International, Inc., priority 2001, dated 2004), which cites them from elsewhere.

The conditions of the series: zearalenone and/or its derivatives; cited from earlier work.

For `C[C@H]1CCCC(=O)CCC/C=C/c2cc(O)cc(O)c2C(=O)O1` [zearalenone], the genotoxicity entry was “genotoxic”.
